Experiment in all cases: protein-binding microarray (PBM)
Holding throughout (conditions): PBM: ~300 nM protein, 6 mM HEPES pH 7.8, 80 mM KCl, 0.5 mM EDTA, 0.5 mM EGTA, 6% glycerol, 35 ng/ul poly-dIdC, 1% milk, 1 h, room temperature; Ap Aiptasia and Nv Nematostella (sea anemones) / Co Capsaspora / Aq Amphimedon (sponge) / Dm Drosophila / Hu human; RHD is the Rel homology domain; high values mean tight binding; most listed sequences are background and not binding sites; double strand, one strand shown

The target of assay [1] is T1, GST-Ap-NF-kB RHD (UniProt A0A913YAJ5).
T1 sequence: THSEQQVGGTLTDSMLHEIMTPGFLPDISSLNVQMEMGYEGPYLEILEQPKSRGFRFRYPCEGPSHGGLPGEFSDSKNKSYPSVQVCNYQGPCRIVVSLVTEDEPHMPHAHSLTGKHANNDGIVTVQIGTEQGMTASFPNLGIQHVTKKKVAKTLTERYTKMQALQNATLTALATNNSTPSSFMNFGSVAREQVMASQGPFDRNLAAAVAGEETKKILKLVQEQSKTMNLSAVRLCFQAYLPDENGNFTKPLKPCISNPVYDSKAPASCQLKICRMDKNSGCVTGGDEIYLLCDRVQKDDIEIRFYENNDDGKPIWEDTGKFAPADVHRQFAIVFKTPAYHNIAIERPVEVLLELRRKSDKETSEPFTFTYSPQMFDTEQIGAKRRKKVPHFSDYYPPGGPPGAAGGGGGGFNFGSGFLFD

Assay [2] addresses T2, GST-Nv-NF-kB (Cys allele) (UniProt E5G601).
T2 sequence: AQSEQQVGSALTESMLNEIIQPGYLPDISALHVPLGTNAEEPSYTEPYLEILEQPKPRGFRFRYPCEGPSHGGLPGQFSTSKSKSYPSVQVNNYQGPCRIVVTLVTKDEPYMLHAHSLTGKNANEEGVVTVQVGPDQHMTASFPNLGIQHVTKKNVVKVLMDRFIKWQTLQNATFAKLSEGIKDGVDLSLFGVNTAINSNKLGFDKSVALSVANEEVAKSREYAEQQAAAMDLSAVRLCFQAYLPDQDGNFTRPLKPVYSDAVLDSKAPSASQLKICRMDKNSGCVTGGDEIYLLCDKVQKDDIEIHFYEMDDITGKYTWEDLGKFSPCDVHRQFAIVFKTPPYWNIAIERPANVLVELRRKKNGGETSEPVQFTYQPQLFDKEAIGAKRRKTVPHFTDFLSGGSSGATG

In assay [3] the target is T3, GST-Co-NF-kB (UniProt F1ARL5).
T3 sequence: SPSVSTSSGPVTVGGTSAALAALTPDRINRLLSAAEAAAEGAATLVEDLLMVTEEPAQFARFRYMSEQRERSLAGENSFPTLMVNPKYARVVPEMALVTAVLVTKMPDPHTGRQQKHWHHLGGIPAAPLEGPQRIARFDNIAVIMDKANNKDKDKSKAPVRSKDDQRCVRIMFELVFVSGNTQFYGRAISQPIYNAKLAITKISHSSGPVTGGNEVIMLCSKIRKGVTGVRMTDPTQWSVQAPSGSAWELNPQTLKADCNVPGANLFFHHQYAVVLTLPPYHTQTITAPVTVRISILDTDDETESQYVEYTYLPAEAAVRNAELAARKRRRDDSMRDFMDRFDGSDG

Assay [4] concerns the target T4, GST-Dm-Relish (UniProt Q94527).
T4 sequence: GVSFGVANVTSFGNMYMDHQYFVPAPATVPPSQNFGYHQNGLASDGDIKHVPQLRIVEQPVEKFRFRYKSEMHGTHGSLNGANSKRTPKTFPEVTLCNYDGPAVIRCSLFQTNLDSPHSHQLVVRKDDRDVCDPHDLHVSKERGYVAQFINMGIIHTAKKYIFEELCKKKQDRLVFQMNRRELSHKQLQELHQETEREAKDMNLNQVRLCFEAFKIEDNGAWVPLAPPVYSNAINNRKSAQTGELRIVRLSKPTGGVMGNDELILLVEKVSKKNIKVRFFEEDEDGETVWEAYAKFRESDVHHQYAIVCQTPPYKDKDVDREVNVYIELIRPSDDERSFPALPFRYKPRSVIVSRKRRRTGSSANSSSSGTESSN

In assay [5] the target is T5, GST-Aq-NF-kB (UniProt A9Y5G7).
T5 sequence: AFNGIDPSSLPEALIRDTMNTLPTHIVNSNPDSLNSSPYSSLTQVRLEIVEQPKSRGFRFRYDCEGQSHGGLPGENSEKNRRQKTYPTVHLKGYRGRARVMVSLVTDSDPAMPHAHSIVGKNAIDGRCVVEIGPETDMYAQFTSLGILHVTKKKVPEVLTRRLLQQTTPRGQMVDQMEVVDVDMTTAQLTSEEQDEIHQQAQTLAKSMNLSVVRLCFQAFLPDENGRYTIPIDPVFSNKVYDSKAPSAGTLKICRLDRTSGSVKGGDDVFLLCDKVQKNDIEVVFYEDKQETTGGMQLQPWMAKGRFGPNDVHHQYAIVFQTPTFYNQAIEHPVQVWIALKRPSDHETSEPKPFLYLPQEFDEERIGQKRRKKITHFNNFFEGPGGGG

The entries are a selection whose mix differs from that of the whole data set. The list includes weakly bound sequences.

For “CCGATTAACATCAGGGAGCCGTATGATGTTAATCGGGTCTTGATTCGCTTGACGCTGCTG”, the binding signal was 1.18 z-score in assay [1]; 0.127 z-score in assay [2]; 0.12 z-score in assay [3]; -0.59 z-score in assay [4]; 0.316 z-score in assay [5].

For “CCGATTAACATCAGCTCTGTACATGATGTTAATCGGGTCTTGATTCGCTTGACGCTGCTG”, the binding signal was -0.371 z-score in assay [1]; -0.0137 z-score in assay [2]; -0.0141 z-score in assay [3]; 0.0134 z-score in assay [4]; -0.557 z-score in assay [5].

As for “CCGATTAACATCAAAATTCCATGTGATGTTAATCGGGTCTTGATTCGCTTGACGCTGCTG”, the binding signal in assay [1] was -0.162 z-score; in assay [2] it was -0.201 z-score; in assay [3], -0.696 z-score; in assay [4], 1.36 z-score; in assay [5], 0.221 z-score.

As for “CCGATTAACATCACGCTGGACGCTGATGTTAATCGGGTCTTGATTCGCTTGACGCTGCTG”, the binding signal in assay [1] is -0.565 z-score; in assay [2], -1.35 z-score; in assay [3], -0.551 z-score; in assay [4] it was -0.553 z-score; in assay [5] it was -0.581 z-score.

For “CCGATTAACATCAACTCCTTGGCTGATGTTAATCGGGTCTTGATTCGCTTGACGCTGCTG”, the binding signal is -0.0472 z-score in assay [1]; 0.414 z-score in assay [2]; -0.239 z-score in assay [3]; -0.782 z-score in assay [4]; -0.54 z-score in assay [5].

Turning to “CCGATTAACATCAGAACATGCGTTGATGTTAATCGGGTCTTGATTCGCTTGACGCTGCTG”, the binding signal was -0.151 z-score in assay [1]; -0.97 z-score in assay [2]; -0.551 z-score in assay [3]; -0.807 z-score in assay [4]; -0.495 z-score in assay [5].

For “CCGATTAACATCATCGAGAGTGCTGATGTTAATCGGGTCTTGATTCGCTTGACGCTGCTG”, the binding signal in assay [1] is -0.0834 z-score; in assay [2], 0.019 z-score; in assay [3], -0.34 z-score; in assay [4], -0.881 z-score; in assay [5], -0.328 z-score.

Regarding “CCGATTAACATCAACCTGAGCGGTGATGTTAATCGGGTCTTGATTCGCTTGACGCTGCTG”, the binding signal is 0.242 z-score in assay [1]; 0.215 z-score in assay [2]; 0.823 z-score in assay [3]; 0.769 z-score in assay [4]; 0.0675 z-score in assay [5].

With “CCGATTAACATCAGAAATTCCTATGATGTTAATCGGGTCTTGATTCGCTTGACGCTGCTG”, the binding signal in assay [1] is 0.111 z-score; in assay [2], -0.669 z-score; in assay [3] it was 0.235 z-score; in assay [4], 0.303 z-score; in assay [5] it was 0.696 z-score.

Consider “CCGATTAACATCAATGGACCGTTTGATGTTAATCGGGTCTTGATTCGCTTGACGCTGCTG”, for which the binding signal in assay [1] is -0.402 z-score; in assay [2] it was 0.481 z-score; in assay [3], -0.551 z-score; in assay [4], -0.543 z-score; in assay [5] it was -0.31 z-score.
